Reference: ChEMBL document CHEMBL4888484, “Replenishing the malaria drug discovery pipeline: Screening and hit evaluation of the MMV Hit Generation Library 1 (HGL1) against asexual blood stage Plasmodium falciparum ,using a nano luciferase reporter read-out” (2022)
The campaign covered roughly 150,000 compounds. About 540 (0.36%) showed an effect of 50% or more. Some of the results follow.

system: Plasmodium falciparum; assay: Primary screen in NF54 nanoGlo assay, in single point, at 2uM, 72h; a lower Z score goes with more inhibition; format: functional, Erythrocyte; conditions: timepoint 72 hour

Structure (SMILES)	% Inhibition	Z score
CN1CCN(c2cc(N3CCN(C(=O)Cc4ccccc4)CC3)ncn2)CC1	-10%	0.91
Nc1cc(C2CCN(C(=O)c3ccccc3Br)CC2)no1	-5%	0.75
CN(Cc1csc(-c2ccccc2)n1)C(=O)[C@@H]1Cc2ccccc2C(=O)N1	3%	-0.51
CC(C)(C)c1nc2ccc(S(=O)(=O)N3CCC(CN)CC3)cc2s1	7%	-1.01
CO[C@H]1CCCN(Cc2cc3cc4c(cc3nc2-c2ccc(Cl)cc2)OCO4)C1	-2%	0.24
C=CCN(C)C(=O)c1ccc(S(=O)(=O)N2C[C@H]3CCC[C@@]3(CO)C2)cc1	-14%	1.39
O=C1O[C@H]2CN(C3Cc4ccccc4C3)C[C@H]2N1C1CCCC1	-5%	0.92
Fc1cccc2c1N(Cc1nc3ccccc3o1)CCC2	-9%	1.39
CN(Cc1cn(C)nn1)Cc1nccn1CC(F)(F)F	6%	-0.62
O=C1CC(C(=O)N[C@@H](Cc2ccccc2)c2nc3ccccc3o2)C1	-9%	1.26
O=C(Nc1ccccc1Oc1ccccc1)c1ccno1	-13%	2.04
CCCN(CC1CC1)c1nnc([C@H]2CCCO2)n1Cc1cccs1	-5%	1.04
Cc1ccc2c(c1)N(Cc1ccccc1F)N=C(C(=O)N1CCCCCC1)S2(=O)=O	-7%	0.83
Cc1nc2cc(C(=O)OCC(=O)N3CCC(Cc4ccccc4)CC3)ccc2n1-c1ccccc1	1%	-0.14
O=C(Nc1ccccc1N1C(=O)c2ccccc2C1=O)c1ccco1	34%	-3.8
CC(=O)Nc1ccc(S(=O)(=O)Nc2cccn3ncnc23)cc1	-7%	0.79
CCCn1ccnc1CN(Cc1nccs1)C1CC1	7%	-0.68
c1cncc(-c2nc3c(c(NCc4ccc5c(c4)OCO5)n2)CNC3)c1	2%	-0.39
CC(C)n1nnnc1CN1CC[C@H](c2ccccc2)C1	10%	-1.17
Fc1cncc(Br)c1CNC1CCCC1	15%	-1.91
c1ccc(OCCNCC2CCCCC2)nc1	-1%	0.15

Structure (SMILES)	% Inhibition	Z score
CC[C@@H](c1cccnc1)N(C)CC(=O)Nc1cn(C)nc1C	-10%	1.83
CCc1oc2c(NC(=O)N3CCOC[C@@H](CO)C3)cc(Cl)cc2c1C	0%	-0.06
C[C@@H](C(=O)NC(C)(C)C)N1CCCCC1	3%	-0.3
CC(C)(C)OC(=O)N[C@H]1CCN(C(=O)Cc2ccccc2O)C1	-9%	0.88
Cc1nc2c(OCc3ccn(C4CCCC4)n3)cccc2o1	-14%	1.46
NC(=O)c1cccnc1N[C@H]1CC(=O)N(CC2CCCCC2)C1	-7%	1.43
CCn1ncc(C2=NO[C@H](C(=O)Nc3cccnc3)C2)c1C	-12%	2.21
O=C1CCC(N2CCCC3(CCCN(Cc4ccccc4)C3)C2)CCN1Cc1ccc(F)cc1F (stereo unspecified)	5%	-0.54
C=Cc1ccc(C(=O)N2C[C@@H]3CC[C@H]2CN(C)C3)cc1	-3%	0.54
O=S(=O)(c1ccc2ccccc2c1F)N1CC(CO)C1	36%	-4.07
CN1Cc2cc(OCC3(O)CCOCC3)ccc2C1=O	38%	-5.54
CCc1n[nH]c(NC(=O)C(C)(C)C)c1Br	-1%	0.11
CCCCc1nc(C)cc(NC[C@H]2CCN(S(=O)(=O)CCCC)C2)n1	7%	-0.84
COc1cc(Br)cc2c1O[C@]1(C)C[C@@H]2NC(=O)N1c1ccc(C)cc1	-17%	2.67
Cc1cccc2c1nc1n2[C@@H](CNC(=O)c2ccc3c(c2)OCO3)COC1	27%	-3.1
COc1ccc(-c2nc3ccc(Cc4ccc5nc(-c6ccc(OC)cc6)c(-c6ccc(OC)cc6)nc5c4)cc3nc2-c2ccc(OC)cc2)cc1	11%	-2.21
CC(C)(C)CC(=O)N1CC(N2C(=O)COC2=O)C1	-2%	0.19
CCc1cc(CN2CCC3(CC2)Cc2cccc(c2)Oc2ccc(cc2)C[C@@H](C(=O)O)NC(=O)CCNC3=O)on1	-2%	0.34
CCOC(=O)CN(C(=O)COc1cccc(C)c1)c1ccc(F)cn1	-19%	2.91
O=C([C@H]1CCOC1)N1CCCn2nc(-c3ccc(Cl)cc3)cc2C1	-8%	1.3
CCC1(CO)CCCN(C(C)C(N)=O)C1 (stereo unspecified)	9%	-1.79

Structure (SMILES)	% Inhibition	Z score
NC(=O)N1CCCC1CC1CCCc2ccccc21 (stereo unspecified)	-5%	0.63
C[C@H]1CCCN(C(=O)CN(C)C2CCN(Cc3ccccc3)CC2)C1	13%	-1.74
Nc1ccc(-c2nc(-c3ccccc3)c3cc(-c4c5ccccc5c(-c5ccc6nc(-c7ccc(N)cc7)nc(-c7ccccc7)c6c5)c5ccccc45)ccc3n2)cc1	-4%	0.77
COc1cc(C)n(CCNC(=O)CCc2ccc(Cl)c(C(F)(F)F)c2)c(=O)c1	-12%	2.21
Cc1cc2c(c(-c3ccc(-c4csc(N)n4)cc3)c1)O[C@@H](CN)C2	-6%	0.98
Cc1cc(C)c(CN2CCS(=O)(=O)CC2)cc1CN1CCC(C)CC1	5%	-0.64
O=C(COc1ccccc1F)NC1CCN(c2cnsn2)CC1	-21%	2.67
CC(C)N(C)c1ccccc1CNC(=O)Cc1cscn1	-9%	1.38
C[C@@H]1CN(C(=O)c2nc3ccc(Cl)cn3c2CNCCc2cn[nH]c2)C[C@H](C)O1	-11%	1.95
CC(NC(=O)c1ccnn1C)C1CCCO1 (stereo unspecified)	-5%	0.73
NC(=O)C1(NCc2ccon2)CCCCC1	-7%	1.29
CCc1cc2c(N3CC[S+]([O-])CCC3C)ncnc2s1 (stereo unspecified)	0%	0
Cc1ccc(OCC(=O)N2CCC(C)(c3nc(C)no3)CC2)cc1	-1%	0.19
CCn1ncnc1CN1CCN(c2cccc(OC)c2)C(C)(C)C1	3%	-0.54
CCn1ccc(CN2CCC(CNC(=O)[C@@H]3CCCCN3C(=O)OC)CC2)n1	-3%	0.49
CCS(=O)(=O)N(CCc1cccs1)Cc1cc(C)on1	-7%	0.91
Cc1ccc(C(=O)Nc2ncnc3c2c(-c2ccc(C)cc2)nn3C(C)(C)C)cc1	-6%	0.78
Cc1c(C(=O)N[C@@H](C)COCC(C)C)nnn1-c1cccc2ncccc12	11%	-1.13
CC(=O)N1CCN(C(=O)CC[C@@H](C)[C@H]2CC[C@H]3[C@@H]4[C@@H](O)C[C@@H]5C[C@H](O)CC[C@]5(C)[C@H]4CC[C@]23C)CC1	-5%	0.78
Cc1cc2nc(C)c(=O)n(CC(=O)NCCCN(C)Cc3ccccc3)c2cc1C	-15%	1.92
CC1(C)CCN(C(=O)c2ccoc2C2CC2)CCS1(=O)=O	-5%	0.74

Structure (SMILES)	% Inhibition	Z score
O=C(Cn1nnc2ccccc21)N1CC[C@H](Oc2cccc3cccnc23)C1	-9%	1.81
COc1ccc([C@@H](C)NC(=O)N2CCC3(C2)CC3(F)F)c(OC)c1 (stereo partly specified)	-19%	2.46
CC(C)c1nccn1CC(=O)N1CCC[C@H]1c1cccs1	-5%	0.62
CN(CC1CCCCC1)C(=O)c1cc2ccccc2[nH]1	-7%	0.95
CCCc1nc(C(=O)N2CCc3cc(OC)c(OC)cc3C2)cs1	-18%	1.68
Cc1c(C(c2ccc(-c3cccc(C(F)(F)F)c3)o2)c2c(C)n(C)n(-c3ccccc3)c2=O)c(=O)n(-c2ccccc2)n1C	-2%	0.33
CCOCc1ccccc1CNC(=O)N1CCCCCNC(=O)CC1	-20%	2.1
CO[C@H]1C[C@@H](O)C12CCN(C(=O)c1c(C)noc1C)CC2	-13%	1.17
O=C(NCCc1ccccn1)N1CCn2cncc2C1	6%	-0.8
CN(C)C(=O)c1cccc(/C=C/C2CCCCC2)c1	-7%	0.9
COc1ccc(OC)c(-c2ccnc3nncn23)c1	25%	-2.82
CC(C)(C)c1cnc(C=Cc2ncc(C(=O)O)s2)s1	9%	-0.88
NCC(=O)N1CC[C@H](Oc2ccc(Cl)c(Cl)c2)C1	-4%	0.51
CCOc1ccc(N2C(=O)c3cc(-c4ccccc4)nn3C[C@@]2(C)C(=O)NCCCOC)cc1	-4%	0.67
Cc1cccc(Cn2c(=O)[nH]c3c(-c4ccccn4)nsc3c2=O)c1	-1%	0.14
Cc1ccc(NS(=O)(=O)c2cc(-c3c(C)noc3C)ccc2C)c(Br)c1	-1%	0.14
CN1C(=O)CCN(C(=O)Cn2cc(C3CC3)cn2)c2ccccc21	-12%	1.74
O=C(Cn1cnnn1)NCCCc1ccc(Br)cc1F	0%	-0.03
Cc1cc(CNC2CCN(c3ccc(N4CCN(C)C4=O)cc3)CC2)[nH]n1	-10%	1.23
COc1ccc(Cc2nc(-c3ccc4c(c3)ncn4CCC(=O)N3CCCC3)no2)cc1Cl	-6%	0.81
